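Values below derive from 48-hour exposures of cells grown in 96-well plates, with endpoints linearly interpolated between the two concentrations bracketing the appropriate inhibition level. The concentration for 50% growth inhibition is given as GI50. The concentration for full growth arrest is given as TGI.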
System: NCI-H322M lung
Assay: DTP human tumour cell line panel, 48 h

Compound	TGI [µM]	GI50 [µM]
CCCCCCCCCCCCCCCC(=O)OC1C(O)C(CO)OC(OC)C1NC(=O)N(CCCl)N=O (stereo not drawn)	29.6	
NC(=O)C(Nc1ccc(Cl)cc1)c1cc2cc(Br)ccc2nc1Cl (stereo not drawn)	> 50	
CN(C)CCC1(C2=CCCC2)CC/C(=C\c2ccccc2Cl)C1=O (stereo not drawn)	27.6	
O=C(NN1C(=O)CSC12CCCC2)C(O)c1ccccc1 (stereo not drawn)	> 100	> 100
CC1=NN(C(=O)c2ccncc2)C(=O)C1N=Nc1ccc2ccccc2c1 (stereo not drawn)	> 100	
COc1ccc(/C=C2/CCS(=O)(=O)c3ccc(C)cc3C2=O)cc1OC	27.8	
COC(=O)c1c2c(cc3c1CC1(Cc4cc5c(cc4C1)CCC5)C3)CCC2	> 100	
CC(=O)NC(CCCCN(Cc1ccccc1)C(=O)N(CCCl)N=O)C(=O)NCc1ccccc1 (stereo not drawn)	98.3	
CC1=C2[C@H](c3ccccc3)C3C=CC2(c2ccccc23)N(C(=O)C(c2ccccc2)c2ccccc2)C1=O (stereo partly drawn)	> 100	
O=[N+]([O-])c1sc2ccc(Cl)cc2c1Nc1ccc(Cl)cc1	> 100	
CC(Oc1ccccc1Cl)C(=O)NN1C(=O)CSC1c1ccc(Cl)cc1 (stereo not drawn)	42.2	
C#CCN(N=O)C(=O)NCCCC(NC(C)=O)C(=O)NCc1ccccc1 (stereo not drawn)	> 100	
C=C1CC(COc2ccc3c(C)cc(=O)oc3c2)(c2ccccc2)OC1=O (stereo not drawn)	23.7	
Nc1ccc2c(c1)Oc1c(F)c(F)cc3c(=O)c(C(=O)O)cn-2c13	> 100	
COc1ccc2nc3n(c2c1)C(c1c(Cl)cccc1Cl)SC3 (stereo not drawn)	> 100	
C/C=C(/C)C(=O)OC1C=C(CO)C(=O)C(OC(=O)C(C)(O)C(C)Cl)C1C(C)C (stereo not drawn)	3.02	1.64
CCC[CH2][Sn]([CH2]CCC)([O]C(=O)c1cc(F)cc(F)c1)[O][Sn]([CH2]CCC)([CH2]CCC)[O]C(=O)c1cc(F)cc(F)c1	5.47	2.24
CCOC(=O)c1[nH]c2nc(SC)nc(Nc3ccccc3Cl)c2c1N	76.5	
CC(O[Si](c1ccccc1)(c1ccccc1)C(C)(C)C)[C@H](NC(=O)OC(C)(C)C)C(=O)O (stereo partly drawn)	> 100	
Cc1cc(C)n(C(=O)CSc2nnc(SCC(=O)n3nc(C)cc3C)s2)n1	> 100	
COc1cc(CC(C(=O)O)C(=O)O)c(OC)cc1CC(C(=O)O)C(=O)O	> 100	
C[N+](C)([O-])Cc1cc(-c2ccccc2)ccc1O	> 100	
O=C(O)c1nccnc1C(=O)O	> 100	

Compound	TGI [µM]	GI50 [µM]
CN(C)c1ccc(C2ON=C(c3ccccc3)N2C23CC4CC(CC(C4)C2)C3)cc1 (stereo not drawn)	6.78	
COc1ccc2c(c1)N(CCO)C1=C(C(=O)OC1)C2c1ccccc1 (stereo not drawn)	> 50	2.33
CC(C)(C)NC/C(=C\c1ccccc1)C(=O)c1ccccc1	22.6	7.55
CCCN1C(=O)/C(=C/c2ccc(O)cc2)SC1=Nc1ccc(OC)cc1	31.2	15.6
CC(C)CN(CC#N)CC(C)C	> 100	
O=c1[nH]c(=O)n(C/C=C/CBr)nc1Br	30.2	
COc1ccc(C[C@H](N)C(=O)N2C[C@@H](CO)C[C@@H](n3cnc4c(N(C)C)ncnc43)C2)cc1	> 100	
O=C1CN(c2ccc(Cl)cc2)C(=O)CN1NCNN1CC(=O)N(c2ccc(Cl)cc2)CC1=O	> 100	
COC(=O)C(=O)C(C(=O)C=C(C)C)C(=O)C(=O)Nc1nc2ccc([N+](=O)[O-])cc2s1 (stereo not drawn)	> 100	
CCOC(=O)NC(Nc1ccc(Cl)cn1)(C(F)(F)F)C(F)(F)F	> 100	
COc1ccc(Nc2nc3ccccc3nc2C(=O)O)cc1OC	> 100	
CC(=O)Oc1c(C)c2c(c3ccccc13)OC(C)(C)C2	29.3	
O=C1C(=O)N(c2cccc(C(F)(F)F)c2)C(=O)C(=O)C1c1nc2ccccc2s1	> 100	
CCOC(=O)N1[C@@H]2CCC[C@@H]2C(=O)[C@@H]2CCC[C@@H]21	> 100	
COc1cc2c(cc1OC)c1c(OC)c(OC)cc3c1c1c2sc(=S)n1CC3	> 100	
COc1ccc2c(CCNS(=O)(=O)c3ccccc3)c(C(C)=O)[nH]c2c1	> 100	
CCc1nc2cc(/C=C/C(=O)NO)ccc2c(=O)n1CCc1ccc(F)cc1	> 100	2.4
Cc1cc(C)nc(NS(=O)(=O)c2ccc(NC(=O)c3ccc(Cl)c4c(Nc5ccc(S(=O)(=O)N=C(N)N)cc5)c5ccccc5nc34)cc2)n1	73.8	
C1CCN2CC3CCCN4CCCC(C2C1)C34 (stereo not drawn)	> 100	
Cn1c(-c2ccc(N=NNc3ccc(-c4n[nH]c(=S)n4C)cc3)cc2)n[nH]c1=S	> 100	
Oc1cc(CN2COc3ccccc32)c(O)cc1CNC1CCCCC1	> 100	
CCCCCCCCCc1c(O)c(O)c(CCCCCCCCC)c(CCCCCCCCC)c1CCCCCCCCC	> 100	
CC(=O)ON(C(C)=O)C1C(COC(c2ccccc2)(c2ccccc2)c2ccccc2)OC2OC3(CCCC3)OC21 (stereo not drawn)	> 100	
